# Data from the supplement of paper PMC9046079.
# Counter-ions that a name gives are not always drawn. ± gives the standard deviation of the averaged measurements. This is one part of the list.
# Assays:
# [1] = test system: murine small intestinal organoids (ENR+CD Paneth differentiation); experiment: cellular ATP (CellTiter-Glo 3D) relative to plate median (log10 fold change); higher = more viable cells; settings: 6 d
# [2] = test system: murine small intestinal organoids (ENR+CD Paneth differentiation); experiment: carbachol-stimulated secreted lysozyme activity relative to plate median (log10 fold change); higher = more Paneth cell lysozyme secretion; settings: 6 d, carbachol 10 µM
# [3] = test system: murine small intestinal organoids (ENR+CD Paneth differentiation); experiment: basal (non-stimulated) secreted lysozyme activity relative to plate median (log10 fold change); higher = more Paneth cell lysozyme secretion; settings: 6 d
# 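For basal (non-stimulated) secreted lysozyme activity relative to plate median in this document: ISC-enriched organoid precursors grown as 2.5D pseudo-monolayer on Matrigel, compound given on day 0 and day 3, plate values LOESS-normalized before median fold change, three murine donors.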
# 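For cellular ATP (CellTiter-Glo 3D) relative to plate median in this document: 2.5D pseudo-monolayer culture of ISC-enriched organoids partly embedded atop Matrigel, compound added on day 0 and again on day 3, per-plate LOESS correction before median fold change.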
SMILES,cellular ATP (log10) ([1]; 0.08 µM),cellular ATP (log10) ([1]; 0.4 µM),cellular ATP (log10) ([1]; 2 µM),cellular ATP (log10) ([1]; 10 µM),carbachol-stimulated secreted lysozyme activity (log10) ([2]; 0.08 µM),carbachol-stimulated secreted lysozyme activity (log10) ([2]; 0.4 µM),carbachol-stimulated secreted lysozyme activity (log10) ([2]; 2 µM),carbachol-stimulated secreted lysozyme activity (log10) ([2]; 10 µM),basal (log10) ([3]; 0.08 µM),basal (log10) ([3]; 0.4 µM),basal (log10) ([3]; 2 µM),basal (log10) ([3]; 10 µM)
COc1ccc([C@]2(C#N)CC[C@@H](C(=O)O)CC2)cc1OC1CCCC1 [Cilomilast],-0.334 ± 0.094,-0.338 ± 0.31,-0.235 ± 0.078,-0.192 ± 0.082,0.139 ± 0.33,-0.15 ± 0.14,-0.0699 ± 0.099,-0.0244 ± 0.065,0.114 ± 0.27,-0.0369 ± 0.012,-0.00959 ± 0.11,-0.0432 ± 0.084
Nc1nc(OCc2cc(Br)cs2)c2[nH]cnc2n1 [Lomeguatrib],-0.426 ± 0.66,-0.309 ± 0.55,0.0745 ± 0.22,-0.0803 ± 0.26,-0.0345 ± 0.1,0.0249 ± 0.079,-0.0926 ± 0.049,-0.156 ± 0.11,-0.0502 ± 0.036,-0.0185 ± 0.077,-0.0222 ± 0.054,-0.104 ± 0.025
CC(C)(C)c1cc(/C=C(\C#N)C(N)=S)cc(C(C)(C)C)c1O [Tyrphostin AG 879],-0.354 ± 0.24,-0.263 ± 0.2,-0.23 ± 0.11,-0.331 ± 0.44,-0.0983 ± 0.043,-0.119 ± 0.12,0.129 ± 0.19,-0.00169 ± 0.12,-0.0621 ± 0.0074,-0.103 ± 0.08,-0.0878 ± 0.039,-0.0475 ± 0.16
Cc1cc(Nc2cc(CN3CCOCC3)c3nc(C)c(Cc4ccc(Cl)cc4F)n3n2)n[nH]1,0.108 ± 0.087,0.062 ± 0.3,0.181 ± 0.2,-0.831 ± 0.47,0.14 ± 0.0084,0.0757 ± 0.011,0.168 ± 0.17,-0.419 ± 0.05,0.132 ± 0.26,0.00378 ± 0.027,0.0679 ± 0.053,-0.28 ± 0.081
COc1ccc2c(c1)c(C1=C(c3c[nH]c4ccccc34)C(=O)NC1=O)cn2CCCN(C)C,0.0208 ± 0.3,-0.0357 ± 0.15,0.0578 ± 0.036,-0.181 ± 0.48,-0.0256 ± 0.05,-0.0144 ± 0.083,-0.032 ± 0.047,-0.0193 ± 0.14,-0.00531 ± 0.08,0.0131 ± 0.074,0.0909 ± 0.14,-0.0917 ± 0.091
O=C(O)Cn1nnc(-c2cc(N3CCC(Oc4cc(F)ccc4Br)CC3)no2)n1,0.156 ± 0.18,-0.113 ± 0.35,-0.0213 ± 0.23,-0.263 ± 0.086,0.0965 ± 0.076,0.284 ± 0.28,-0.104 ± 0.077,-0.169 ± 0.031,0.023 ± 0.078,0.0314 ± 0.1,-0.0362 ± 0.047,-0.077 ± 0.039
O=C(/C=C/n1cnc(-c2cc(C(F)(F)F)cc(C(F)(F)F)c2)n1)N1CC(F)(F)C1,0.167 ± 0.17,-0.0436 ± 0.11,-0.413 ± 0.37,-0.703 ± 0.069,0.172 ± 0.068,0.182 ± 0.14,-0.415 ± 0.037,-0.462 ± 0.015,0.0565 ± 0.052,0.0857 ± 0.052,-0.224 ± 0.099,-0.256 ± 0.13
CCOC(=O)c1ccc(N2NC(=O)C(=Cc3ccc([N+](=O)[O-])o3)C2=O)cc1,0.204 ± 0.28,0.302 ± 0.35,0.0421 ± 0.43,-0.028 ± 0.48,0.136 ± 0.045,0.0288 ± 0.018,-0.028 ± 0.16,-0.122 ± 0.17,0.164 ± 0.063,-0.00354 ± 0.077,0.0301 ± 0.14,0.00153 ± 0.18
COc1cc2c(cc1OC)CN(CCc1ccc(NC(=O)c3cc(OC)c(OC)cc3NC(=O)c3cnc4ccccc4c3)cc1)CC2 [Tariquidar],-0.101 ± 0.4,-0.145 ± 0.41,0.346 ± 0.41,0.139 ± 0.39,0.1 ± 0.11,0.116 ± 0.09,0.0125 ± 0.048,-0.0565 ± 0.0063,0.0434 ± 0.12,0.028 ± 0.07,0.0276 ± 0.053,0.139 ± 0.2
Cc1cc(OCc2nnc(SC3CCCC3)n2-c2cccnc2)ccc1-c1ccc(S(C)(=O)=O)cc1,0.174 ± 0.2,-0.051 ± 0.03,-0.91 ± 0.5,-1.54 ± 0.63,0.0756 ± 0.11,-0.296 ± 0.072,-0.452 ± 0.042,-0.47 ± 0.11,0.098 ± 0.23,-0.177 ± 0.12,-0.27 ± 0.15,-0.272 ± 0.14
CC(C)N(CC[C@H](c1ccccc1)c1cc(CO)ccc1O)C(C)C,-0.0622 ± 0.36,0.0868 ± 0.11,0.0344 ± 0.12,0.0167 ± 0.044,0.0588 ± 0.06,0.0207 ± 0.021,0.00798 ± 0.023,0.0387 ± 0.022,0.184 ± 0.14,0.0763 ± 0.025,0.154 ± 0.1,0.0336 ± 0.093
CC(C)(C)c1cc(NC(=O)Nc2ccc(-c3cn4c(n3)sc3cc(OCCN5CCOCC5)ccc34)cc2)no1 [Quizartinib (AC220)],-0.151 ± 0.9,-0.106 ± 0.27,-0.238 ± 0.15,-0.301 ± 0.23,-0.00355 ± 0.25,0.126 ± 0.043,-0.072 ± 0.12,-0.187 ± 0.29,-0.0303 ± 0.2,0.144 ± 0.18,-0.0217 ± 0.056,-0.076 ± 0.15
C[C@H]1COC2(CCN(c3nc(=O)c4cc(C(F)(F)F)cc([N+](=O)[O-])c4s3)CC2)O1 (racemic) [BTZ043 Racemate],0.497 ± 0.34,0.545 ± 0.4,0.0628 ± 0.21,0.327 ± 0.24,0.229 ± 0.21,0.212 ± 0.17,0.00836 ± 0.002,-0.00185 ± 0.16,0.131 ± 0.088,0.186 ± 0.14,0.0891 ± 0.055,0.1 ± 0.15
Cc1ccc(S(=O)(=O)n2c(N)nc3ccccc32)cc1 [ML130 (Nodinitib-1)],0.0463 ± 0.051,0.0514 ± 0.11,0.119 ± 0.11,0.156 ± 0.086,-0.0332 ± 0.059,0.0436 ± 0.051,0.0728 ± 0.038,-0.0633 ± 0.0079,0.0283 ± 0.05,0.00699 ± 0.078,0.173 ± 0.27,0.021 ± 0.026
C#CCN[C@@H]1CCc2ccccc21 [Rasagiline Mesylate],0.22 ± 0.22,0.166 ± 0.26,0.0778 ± 0.0048,0.0938 ± 0.29,0.102 ± 0.27,0.103 ± 0.0024,0.199 ± 0.24,0.129 ± 0.13,0.06 ± 0.17,0.159 ± 0.19,0.035 ± 0.097,0.00408 ± 0.093
O=C(NCCN1CCOCC1)c1ccc(Cl)cc1,0.146 ± 0.4,0.106 ± 0.53,0.116 ± 0.35,0.0419 ± 0.2,0.0471 ± 0.18,-0.0121 ± 0.064,-0.0597 ± 0.084,8.09e-05 ± 0.042,0.0752 ± 0.18,0.121 ± 0.22,0.00127 ± 0.12,-0.0279 ± 0.067
O=C(O)CCc1ccc(NCc2cccc(Oc3ccccc3)c2)cc1,0.0633 ± 0.33,0.174 ± 0.29,-0.00113 ± 0.27,-0.0588 ± 0.28,0.127 ± 0.1,0.11 ± 0.13,0.0556 ± 0.11,-0.00112 ± 0.22,0.0747 ± 0.081,0.0194 ± 0.1,-0.0105 ± 0.11,-0.0402 ± 0.047
